# Measurements published in publication PMC4336329 (PLoS ONE, 2015).
# About 2,200 (0.71%) of roughly 310,000 compounds showed an effect of 50% or more. Effects have a minus sign here. This is one part of the list.
# Molecular target: human ether-à-go-go-related gene (hERG) potassium channel (human, UniProt Q12809)
# Experiment: primary screen, population patch clamp on CHO cells stably expressing hERG
# Sequence of human ether-à-go-go-related gene (hERG) potassium channel (Q12809 whole entry, looked up): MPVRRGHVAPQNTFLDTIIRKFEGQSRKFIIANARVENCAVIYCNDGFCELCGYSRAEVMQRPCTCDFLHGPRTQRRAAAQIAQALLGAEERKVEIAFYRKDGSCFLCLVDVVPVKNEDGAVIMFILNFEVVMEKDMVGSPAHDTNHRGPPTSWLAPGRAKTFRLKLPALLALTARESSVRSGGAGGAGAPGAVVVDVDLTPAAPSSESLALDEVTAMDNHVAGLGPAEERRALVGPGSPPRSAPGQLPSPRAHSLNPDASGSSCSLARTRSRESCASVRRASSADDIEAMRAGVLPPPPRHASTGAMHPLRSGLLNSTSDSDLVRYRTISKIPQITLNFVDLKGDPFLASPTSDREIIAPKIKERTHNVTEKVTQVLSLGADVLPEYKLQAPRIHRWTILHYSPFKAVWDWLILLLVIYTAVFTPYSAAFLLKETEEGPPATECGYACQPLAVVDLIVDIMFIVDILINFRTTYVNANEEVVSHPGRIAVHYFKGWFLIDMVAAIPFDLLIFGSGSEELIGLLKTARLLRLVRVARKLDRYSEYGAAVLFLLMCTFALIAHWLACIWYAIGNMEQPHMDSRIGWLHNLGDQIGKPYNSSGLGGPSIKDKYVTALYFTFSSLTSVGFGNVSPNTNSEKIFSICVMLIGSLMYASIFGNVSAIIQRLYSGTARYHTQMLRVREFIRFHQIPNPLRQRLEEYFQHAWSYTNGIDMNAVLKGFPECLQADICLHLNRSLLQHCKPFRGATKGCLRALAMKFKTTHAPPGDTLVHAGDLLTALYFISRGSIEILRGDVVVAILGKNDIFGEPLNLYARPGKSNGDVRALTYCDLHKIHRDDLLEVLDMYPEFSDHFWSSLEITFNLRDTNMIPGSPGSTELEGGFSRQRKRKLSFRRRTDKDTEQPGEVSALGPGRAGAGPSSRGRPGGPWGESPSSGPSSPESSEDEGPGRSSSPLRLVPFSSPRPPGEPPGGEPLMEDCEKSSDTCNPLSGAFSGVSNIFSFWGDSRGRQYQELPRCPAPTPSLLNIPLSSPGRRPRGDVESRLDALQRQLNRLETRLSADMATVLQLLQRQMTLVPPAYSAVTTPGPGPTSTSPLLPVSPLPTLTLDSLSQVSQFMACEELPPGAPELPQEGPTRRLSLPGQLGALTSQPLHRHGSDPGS
row,SMILES,"hERG current change (%, negative = inhibition) at 1uM [%]"
1,COc1cc(/C=C/C(=O)Nc2ccc3[nH]c(=O)[nH]c3c2)cc(OC)c1OC,4.59
2,COc1ccc(S(=O)(=O)N2CCC(C(=O)NC(c3nc4ccccc4[nH]3)C(C)C)CC2)cc1 (stereo not shown),14.3
3,Cc1c(O)ccc2c(CC(=O)N[C@@H](Cc3c[nH]c4ccccc34)C(=O)O)cc(=O)oc12,14.1
4,C/C(CC1(O)C(=O)N(C)c2ccccc21)=N\O (stereo not shown),18.7
5,CC(C)c1cc(C(=O)N/N=C/c2cccnc2)cs1,-6.85
6,CC(C)(C)C(=O)NC(=S)Nc1ccccc1C(N)=O,3.85
7,CC1(C)C2CC=C(/C=N/NC(=S)Nc3cccnc3)C1C2 (stereo not shown),12.6
8,O=C(Nc1cc([N+](=O)[O-])ccc1Cl)C(Sc1ccccc1)c1ccccc1 (stereo not shown),1.16
9,COc1ccc(CNC(=O)CCCn2ccc3cc(S(=O)(=O)N4CCCC4)ccc32)cc1,0.708
10,O=S1(=O)N=C2CCCN2C(c2ccc(F)cc2)N1 (stereo not shown),1.14
11,CC(CCc1ccccc1)NC(=O)COC(=O)c1cccc2ccccc12 (stereo not shown),2.34
12,O=C(O)c1cc(S(=O)(=O)NC23CC4CC(CC(C4)C2)C3)ccc1Cl,14.4
13,Cc1csc(NC(=O)CSc2ncnc3c2cnn3-c2ccccc2Cl)n1,6.38
14,Cc1oc2ccc(OCc3ccc(Br)cc3)cc2c1C(=O)O,16.8
15,COC(=O)[C@@]12CCCN1[C@H](c1ccc(-c3cccc(Cl)c3)c(OC)c1)[C@H]1C(=O)N(C)C(=O)[C@H]12.O=C(O)C(F)(F)F,-10.3
16,COc1ccc(OCCCC(=O)Nc2ccc(S(=O)(=O)N3CCOCC3)cc2)cc1,8.46
17,Cc1ccc(S(=O)(=O)N2CCOCC2)cc1C(=O)NCc1ccco1,5.09
18,O=C(c1cc2c(s1)CCCC2)N1CCN(C(=O)C2CCCO2)CC1 (stereo not shown),-8.18
19,CC/C(=N\Nc1ccccc1)c1c(O)n(C)c(=O)n(C)c1=O,4.24
20,Cc1ccnn1CCC(=O)N1CCCC(CCC(=O)NCc2ccccc2F)C1 (stereo not shown),0.831
21,O=S(=O)(c1ccc(Cl)cc1)N1CCN(c2ccccn2)CC1,5.51
22,CCOC(=O)c1c(/N=C/c2cccc([N+](=O)[O-])c2O)sc2c1CCC2,11.1

row,SMILES,"hERG current change (%, negative = inhibition) at 1uM [%]"
1,COc1ccc(CC(=O)N(C)C2CCCCC2)cc1S(=O)(=O)N1CCOCC1,10.6
2,Cc1ccc(-c2nnc(N3CCN(C(=O)CN4CCOCC4)CC3)c3ccccc23)cc1,-9.34
3,O=C(Nc1cnn(C23CC4CC(CC(C4)C2)C3)c1)c1cnn2cccnc12,10.4
4,COC(=O)c1ccc(COC(=O)C23CC4CC(CC(O)(C4)C2)C3)o1,-1.45
5,CC(C)COc1ccc(C/C(N)=N/n2cnnc2)cc1,7.1
6,O=C(c1cc(F)ccc1F)C1CCCN(C(=O)CCCN2CCCCC2=O)C1 (stereo not shown),-1.1
7,Cn1c(O)c(C(=Nc2ccccc2)SCc2ccccc2Cl)c(=O)n(C)c1=O,17.8
8,Cc1ccccc1C(=O)OCn1nnc2ccccc2c1=O,8.4
9,CC(=O)c1ccc(NC(=S)NCC(c2ccco2)N2CCCC2)cc1 (stereo not shown),19
10,Nc1nc(SCC(=O)Nc2ccccc2Sc2ccccc2)n[nH]1,2.31
11,Cc1ccn2c(NC(=O)C(C)(C)Oc3ccc(Cl)cc3)c(-c3cccs3)nc2c1,7.44
12,COc1ccc(-c2nc(-c3ccc(Br)o3)no2)cc1,8.64
13,CN(C)CCCN(C(=O)c1ccc(S(=O)(=O)N2CCc3ccccc32)cc1)c1nc2c(Cl)cccc2s1.Cl,-13.1
14,COCCN1C(=O)N[C@@H](CCc2ccccc2)[C@@H](C(=O)OC)[C@H]1C,5.65
15,O=C(CN1CCC(NC(=O)C2CCCCC2)CC1)NCc1ccco1,6.4
16,Cc1ccccc1N=Cc1c(O)n(-c2nccs2)c(=O)c2ccccc12,7.42
17,Cc1cc(=O)oc2c3c(cc(OCC(=O)NCC(=O)O)c12)OC(C)(C)CC3,17.9
18,N#Cc1ccccc1NC(=O)Nc1ccc(Cl)cc1,7.31
19,COc1ccc(Cl)cc1NC(=O)CN(C)C(=O)c1ccc2c(c1)CC(c1ccccc1)OC2=O (stereo not shown),-14.2
20,S=c1[nH]nc(-c2ccncc2)n1/N=C/c1cn(-c2ccccc2)nc1-c1ccccc1,8.66
21,Nc1nonc1-n1nnc(C(=O)N/N=C/c2ccc3c(c2)OCO3)c1CSc1ccccc1,8.06
22,CN(C)CCCN1C(=O)C2CCc3[nH]c4ccccc4c3C2C1=O (stereo not shown),2.37

row,SMILES,"hERG current change (%, negative = inhibition) at 1uM [%]"
1,CCCC(CCC)C(=O)NC1CCN(Cc2ccccc2)CC1.Cl,5.36
2,CCCN(CCC)CCNC(=S)Nc1ccc2nc3n(c(=O)c2c1)CCCCC3,-1.32
3,COc1ccc(C(CNC(=O)c2ccc(N3CCCC3=O)cc2)N(C)C)cc1 (stereo not shown),8.28
4,COc1ccc(C(CNC(=O)c2cc(C)on2)N(C)C)cc1 (stereo not shown),15.4
5,O=C(NC1CC1)c1ccc(CSCc2cccc(F)c2)o1,-2.48
6,Cc1ccccc1OCC(=O)Nc1ccc2c(c1)OCO2,10.1
7,O=C1c2cccc(OCc3ccc(F)cc3)c2CCN1Cc1ccc(F)cc1,11.8
8,N/C(=N\OC(=O)Cc1ccccc1[N+](=O)[O-])c1ccncc1,2.69
9,CCCC(CCC(=O)Nc1cccc([N+](=O)[O-])c1)C(=O)O (stereo not shown),2.76
10,CCOC(=O)[C@@H]1[C@H]2COc3ccc(Br)cc3[C@@H]2N2C(=O)N(c3ccc(Br)cc3)C(=O)[C@]12C,16
11,COc1ccc(NC(=O)C(CC(C)C)NC(=O)C2CCC(C)CC2)c(OC)c1 (stereo not shown),8.53
12,O=C(NCCN1C(=O)CSC1=O)c1ccccc1,13.3
13,CC(C)(C)NC(=O)c1oc2ccccc2c1COc1ccccc1,12.4
14,FC(F)(F)c1ccc(/C=N/n2c(C3CCCCC3)n[nH]c2=S)cc1,10.9
15,CCC(=O)Nc1ccc(NC(=O)CSc2nnc(C(C)C)n2C)cc1,12.1
16,O=C1CC(N2CCCCC2)C(=O)N1c1ccccc1 (stereo not shown),1.32
17,CC(C)(C)c1cc[n+](-c2[nH]c(=O)sc2/C=N/N=C(\[O-])c2ccccc2)cc1,13.7
18,CCn1c(C(c2ccccc2)c2ccccc2)n[nH]c1=S,10.3
19,Nc1cc(Cl)nc(N/N=C/c2ccc([N+](=O)[O-])cc2)n1,1.47
20,CC(=O)c1ccc(NC(=O)C2CCN(S(=O)(=O)c3cccc4cccnc34)CC2)cc1,16.6
21,O=CN1CCN(C(=O)c2cccc3c2-c2ccccc2C3=O)CC1,10.9
22,O=C(CSc1nnc2c(Cl)cc(C(F)(F)F)cn12)NCc1ccc(F)cc1,2.9

row,SMILES,"hERG current change (%, negative = inhibition) at 1uM [%]"
1,CCOC(=O)N1C(=O)C2(CCCCC2)N(c2ccccc2Cl)C1=S,7.88
2,CCOc1ccc(/C(O)=C2\C(=O)C(=O)N(CCOCCO)C2c2ccccc2OC)cc1 (stereo not shown),6.84
3,Cc1cccn2c(=O)c(/C=C(\C#N)C(=O)NCc3ccco3)c(N3CCCCCC3)nc12,-2.54
4,CCOc1cc(/C=N\NC(=O)c2ccc(C)nc2)ccc1OC(=O)c1ccc(F)cc1,5.49
5,CN(C)Cc1c(O)ccc2c(=O)c(-c3ccccc3Cl)coc12,13.4
6,CCN(CC)S(=O)(=O)c1ccc(-c2nnc(SCC(=O)Nc3ccc4c(c3)OCO4)o2)cc1,7.5
7,C/C(=N/NC(=O)c1ccco1)c1cccc(NC(=O)c2ccc(C)s2)c1,5.93
8,CCc1ccc2oc(C(=O)NCc3ccc(S(N)(=O)=O)cc3)c(C)c2c1,20.2
9,Cc1cc(C)nc(NS(=O)(=O)c2ccc(NC(=O)c3ccc4c(c3)OCCO4)cc2)n1,15.2
10,COc1ccc(NC(=O)CN(C)C(=O)c2ccccc2Sc2ncnc3sc(C)c(C)c23)cc1,19.9
11,Cc1cccc(OCC(=O)NCC(=O)N=Nc2c(O)[nH]c3ccc([N+](=O)[O-])cc23)c1,14.6
12,CC(C)CNC(=O)/C(C#N)=C1\N=C(NC(=O)c2ccco2)c2ccccc21,1.07
13,CC1CN(C(=O)c2cc(S(=O)(=O)N3CCCC3)c(Cl)cc2Cl)CC(C)O1 (stereo not shown),12.6
14,O=C(O)Cn1c(Cc2ccccc2)nc2ccccc21,1.01
15,O=C(c1ccc2ncsc2c1)N1CCN(c2ccc(O)cc2)CC1,-0.0125
16,CCc1cccc(C)c1NC(=O)CC(C)(C)CC(=O)O,15.5
17,Cc1ccccc1C(=O)N1CCC(C(=O)Nc2ccc(C(C)C)cc2)CC1,-6.35
18,COc1cccc(Nc2cc(N3CCOCC3)c3nonc3c2[N+](=O)[O-])c1,1.39
19,COc1ccc(P2(=O)Nc3ccccc3N2)cc1,11.1
